PubChem BioAssay AID1347073 (National Center for Advancing Translational Sciences (NCATS), 2019)
Out of some 45,000 compounds screened, about 200 (0.44%) were called active. Another 7% or so got no clear call; they are omitted. Calls come from the whole dose curve; as a rule, active = well fitted activation curve with a large enough effect; inconclusive = small, poorly fitted or top-dose-only effect; inactive = no such curve, though single readings can be large or run the other way. This is one part of the list. Peptide text beside a SMILES is read from it. * marks the point of attachment. Boc = CC(C)(C)OC(=O)*

assay: qHTS of TDP-43 Inhibitors: NCGC Sytravon Library Screen; settings: yeast TDP-43 toxicity rescue, BacTiter-Glo growth, 24 h; series mostly up to 46.1 µM; growth rescue (activation): at the top concentration; note: 0% is about no effect; nearly all actives have a fitted effect of over 55% in size
Method in brief: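 TDP-43-expressing yeast, pregrown in raffinose, seeded at OD600 0.02 in galactose medium with compound for 24 hr at 30 deg C. Growth read by BacTiter-Glo luminescence, so rescue of toxicity appears as activation.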

SMILES	growth rescue (activation)
COc1ccc(CCNC(=O)COC(=O)c2ccc(OC)cc2OC)cc1	inactive: 14.8%
CCN(CC)CCNC(=O)c1ccc(NC(=O)Cc2cccc3ccccc23)cc1	inactive: -16.6%
CCCCCC(=O)c1c(C)[nH]c(C(=O)OCC)c1C	inactive: 18.6%
O=C(COC(=O)COc1cccc(Br)c1)NCc1ccc2c(c1)OCO2	inactive: 10.7%
COCCNC(=O)NC(=O)CN1CCN(C(c2ccccc2)c2ccccc2)CC1	inactive: -5.85%
COc1ccc(OCC(=O)Nc2ccccc2C(=O)NC(C)C)cc1	inactive: 8.08%
COc1ccc2nc(SCC(=O)NCc3ccc4c(c3)OCO4)[nH]c2c1	inactive: 0.669%
O=C(O)COc1ccccc1/C=N/NC(=O)COc1ccc(-c2ccccc2)cc1	inactive: 4.86%
O=C(COC(=O)C1=COCCO1)NC1CCCCCCC1	inactive: 13.8%
O=C(N/N=C/c1ccc(OC(=O)c2ccco2)cc1)c1ccccn1	inactive: 1.32%
O=C(COc1ncnc2c(Cl)cc(Cl)cc12)Nc1cc([N+](=O)[O-])ccc1Cl	inactive: 18.3%
FC(F)(F)c1cc(Cl)c2nnc(-c3cccnc3)n2c1	inactive: -6.54%
COc1ccccc1C(=O)NC(=S)Nc1ccc(NC(=O)c2cccs2)cc1	inactive: 20.8%
COC(=O)N/N=C/c1ccccc1OCCOc1ccc(OC)cc1	inactive: 14.3%
Cc1c(C(=O)N2CCCC(C)C2)sc2ncnc(N3CCCCC3C)c12 (configuration not stated)	inactive: 23.7%
O=[N+]([O-])c1ccc(N/N=C/c2c[nH]c3ccccc23)cc1	inactive: 31%
O=C(/C=C/c1cccc(F)c1)Nc1cc(S(=O)(=O)N2CCOCC2)ccc1N1CCCC1	inactive: 0.965%
COc1ccc(/C=N\NC(=O)COc2ccccc2)c(C(=O)O)c1OC	inactive: -4.94%
COCc1ccc(C(=O)NC(C)c2cnn(-c3ccccc3C)c2C)o1 (configuration not stated)	inactive: -9.72%
CS(=O)(=O)N1CCN(c2ccc(NC(=S)NC(=O)c3cccs3)cc2)CC1	inactive: -1.81%
COc1ccc(CNC(=O)c2cccc3c(-c4cccc(C(N)=O)c4)coc23)cc1OC	inactive: 2.82%
CC(C)(C)NC(=O)NC(=O)COC(=O)c1cccc(F)c1	inactive: 3.26%

SMILES	growth rescue (activation)
CN(C)S(=O)(=O)c1cccc(NC(=S)N2CCCCC2CO)c1 (configuration not stated)	inactive: 12.1%
O=C(CCN1C(=O)C2CC=CCC2C1=O)Nc1cccc(Cl)c1 (configuration not stated)	inactive: 16.1%
c1ccc(C2=NN(c3ccccc3)C(c3ccco3)C2)cc1 (configuration not stated)	inactive: 0.98%
Cc1ccc(S(=O)(=O)N2CCN(c3ccccc3)CC2)cc1C(N)=O	inactive: 3.02%
COc1ccccc1CCC(=O)OCC(=O)Nc1ccc(C(N)=O)cc1	inactive: 17%
O=C(CCSCCc1ccccn1)Nc1ccc(Cc2ccncc2)cc1	inactive: 6.5%
COC(=O)NC1CCC(NC(=O)OC)CC1 (configuration not stated)	inactive: 4.56%
CCOC(=O)CC1CCCCN1Cc1nc(-c2ccc(F)c(OC)c2)oc1C (configuration not stated)	inactive: 3.86%
O=C(CS(=O)(=O)c1ccccc1)Nc1nccs1	inactive: -0.221%
O=C(NN=C1CCCC1)c1cc(-c2ccc(F)cc2)nc2ccccc12	inactive: 3.63%
CN(C)C(=O)CN1C(=O)NC(c2ccccc2)(c2ccccc2)C1=O	inactive: -2.36%
S=C(c1ccc(Cl)cc1)N1CCN(Cc2ccccc2)CC1	inactive: 2.56%
Cc1nc(SCC(=O)NC2CC2)c2c(C)c(C)sc2n1	inactive: 12.2%
CCN(c1ccccc1)S(=O)(=O)c1cc(NC(=O)COC(=O)C2CC2)ccc1Cl	inactive: 5.66%
COc1cc2cc(C)c3nnc(SCC(=O)Nc4cc(C)on4)n3c2cc1OC	inactive: 10.6%
CC(C)c1nc(SCC(=O)c2c[nH]c3ccccc23)n[nH]1	inactive: 27.7%
O=c1[nH]c(Cc2ccc(F)cc2)nc2scc(-c3ccc(F)cc3)c12	inactive: 19.8%
O=C(c1coc2ccc(O)c(CN3CCOCC3)c12)C1CC1	inactive: 15.6%
C=CCn1c(O)c(N=NC(=O)CNC(=O)/C=C/c2ccc(OC)cc2)c2ccccc21	inactive: -7.75%
Cc1nc2nc(C)c(NS(=O)(=O)c3cccs3)c(=O)n2[nH]1	inactive: 14.1%
COc1ccc2[nH]c3nc(SCC(=O)NC4CC4)nnc3c2c1	inactive: -23.5%
O=C(CN1C(=O)NC2(CCCCC2)C1=O)N1CCN(S(=O)(=O)c2ccccc2)CC1	inactive: 10%

SMILES	growth rescue (activation)
Cc1ccc(C)n1-c1ccncc1	inactive: 15.6%
Cc1cc(Oc2nc3ccccn3c(=O)c2/C=C(\C#N)C(=O)NC2CCS(=O)(=O)C2)ccc1Cl (configuration not stated)	inactive: -1.3%
CN(C(=O)CSc1nc2ccccc2c(=O)n1-c1ccccc1F)C1CCS(=O)(=O)C1 (configuration not stated)	inactive: -9.97%
O=C(C1CCCN1S(=O)(=O)c1ccc(Cl)cc1)N1CCCCC1 (configuration not stated)	inactive: 0.792%
CCOc1ccc(NC(=O)NC(C)c2c(-n3cccc3)sc(C)c2C)cc1 (configuration not stated)	inactive: 13.5%
CCOC(=O)CSc1nc2sc3c(c2c(=O)n1Cc1ccccc1)CC(C)CC3 (configuration not stated)	inactive: -0.873%
Cn1ccnc1C(O)(c1ccccc1)c1ccccc1	inactive: 0.802%
O=S1(=O)CCC(NC(=S)N2CCCCCC2)C1 (configuration not stated)	inactive: 6.81%
CCC/C=N/NC(=O)c1[nH]c2c([N+](=O)[O-])cccc2c1C	inactive: 13.1%
Cc1ccc(C)c(NC(=O)c2cc(-c3ccccc3O)n[nH]2)c1	inactive: 14.4%
O=C(Cc1ccccc1F)Nc1ccc(SC(F)F)cc1	inactive: 7.81%
Cc1c(C(=O)NCc2ccco2)oc2ccccc12	inactive: 10.1%
CCOC(=O)C1=C(c2ccccc2)NC(=O)NC1c1cc(Cl)c(O)c(OC)c1 (configuration not stated)	inactive: 9.77%
CC(=O)c1ccc(N2CCN(C(=S)Nc3ccc(Oc4ccccc4)cc3)CC2)cc1	inactive: -1.19%
O=C(Cn1nc(C(=O)O)c2ccccc2c1=O)Nc1ccc(F)cc1	inactive: 12.6%
COc1ccccc1N1CCN(C(=O)COc2ccc(S(=O)(=O)NC(C)C)cc2)CC1	inactive: 4.78%
Cc1c(N2C(=O)c3ccccc3C2=O)c(=O)n(-c2ccccc2)n1C	inactive: -5.39%
COc1ccc(CN2CCC(C(=O)NC(c3ccc4c(c3)OCO4)c3ccccn3)CC2)cc1 (configuration not stated)	inactive: 3.58%
O=C(Nc1ccc2oc(=O)ccc2c1)c1cc([N+](=O)[O-])ccc1N1CCOCC1	inactive: -3.26%
Cc1cc(O)c(C2=Nc3ccccc3SC(c3ccc(Cl)cc3)C2)c(=O)o1 (configuration not stated)	inactive: 8.7%
Cn1cccc1/C=N/NC(=O)Cc1ccccc1	inactive: -1.65%
O=C(NCc1cccc(Cl)c1)C1CCC(=O)N(CCN2CCOCC2)C1 (configuration not stated)	inactive: 17.8%

SMILES	growth rescue (activation)
CCCN1C(=O)c2ccccc2CC1(C)C(=O)NC1CCCCC1 (configuration not stated)	inactive: 7.14%
COc1ccc(C(C)=O)cc1Cn1c(=O)cc(C)[nH]c1=O	inactive: 5.49%
O=S(=O)(c1cccs1)N1CCN(c2ccc(F)cc2)CC1	inactive: 14%
CC(c1ccon1)N(C)Cc1cn(C)nc1-c1ccc2c(c1)OCCO2 (configuration not stated)	inactive: 9.28%
CCOC(=O)c1cc(-c2ccccc2)sc1NC(=O)C(C)OC(=O)c1cccnc1Cl (configuration not stated)	inactive: -1.91%
CSc1ccc(NC(=O)C2(C)CCN2C(=O)c2cc(C)n(C)n2)cc1 (configuration not stated)	inactive: 10.8%
CCN1CCN(CCOc2cccc(Cl)c2Cl)CC1	inactive: -3.13%
CCOC(=O)C(Cc1ccc(O)cc1)NC(=O)CNC(=O)C(CC(C)C)NC(=O)OC(C)(C)C (stereo not drawn) (Boc-Leu-Gly-Tyr-OEt; configuration not given here)	inactive: 3.2%
NC(=O)NC(CC(=O)Nc1cccnc1)c1cccc(Br)c1 (configuration not stated)	inactive: 6.01%
O=C(NCCCN1CCOCC1)c1sc2cc(F)ccc2c1Cl	inactive: -1.98%
CCCc1ccc(C(O)c2ncc(-c3ccccc3)[nH]2)cc1 (configuration not stated)	inactive: 6.72%
CC(=O)Nc1ccc(S(=O)(=O)N=S(C)(C)=O)cc1	inactive: 1.38%
O=C1/C(=C\c2cccc(O)c2O)SC(=S)N1Cc1ccccc1	inactive: -92.6%
O=C(N/N=C/c1ccc(-c2ccccc2C(=O)O)o1)c1cccs1	inactive: 6.26%
NS(=O)(=O)c1ccc(N/N=C2/CCCCC2C2CCCCC2)c([N+](=O)[O-])c1 (configuration not stated)	inactive: -55.4%
Cc1cccc(Oc2ccc(Cl)cc2N)c1	inactive: 5.06%
COc1ccc2[nH]c(=O)c(CN(Cc3ccc4c(c3)OCO4)C(C)=O)cc2c1	inactive: 11%
CCOC(=O)CSc1nn(-c2ccccc2)c(=S)s1	inactive: 7.6%
COc1ccc(/C=N/Nc2ncc(C(F)(F)F)cc2Cl)c(OC)c1OC	inactive: 23.6%
COc1ccc(/C=C(/Sc2nnc(-c3ccc(Cl)cc3)o2)C(=O)O)cc1	inactive: 6.5%
COc1ccc(-c2nnc(SCC(=O)N(C)C3CCS(=O)(=O)C3)n2C(C)C)cc1 (configuration not stated)	inactive: -5.77%
CC1CN(c2nc3ccccc3cc2-c2ccccc2)CC(C)O1 (configuration not stated)	inactive: 4.18%

SMILES	growth rescue (activation)
COc1cc2c(cc1OC)C1(CCCC1)CNC2c1cccc([N+](=O)[O-])c1 (configuration not stated)	inactive: -16.7%
O=C(Nc1ccccc1[N+](=O)[O-])c1cc(S(=O)(=O)Nc2ccccn2)ccc1Cl	inactive: 3.2%
CCCNC(=O)c1cc(C2CCCCN2S(C)(=O)=O)on1 (configuration not stated)	inactive: -8.85%
O=C(Nc1ccccc1NC(=O)C1CCCO1)c1ccco1 (configuration not stated)	inactive: 0.0759%
O=C(Nc1ccc(N2CCN(C(=O)c3ccc(Cl)cc3)CC2)cc1)c1ccc(Br)o1	inactive: 6.62%
Cc1nc(NC(=O)/C=C/c2ccc(F)cc2)sc1C(=O)N(C)C	inactive: 11.3%
O=c1c2ccccc2[nH]c(=S)n1CCc1ccccc1	inactive: 26.3%
CCOc1ccc(CN2C(=O)CC(=O)N(S(=O)(=O)c3ccc(OCC)cc3)C2=O)cc1	inactive: 40.5%
CS(=O)(=O)N1CCN(c2ccc(NC(=S)NC(=O)c3ccc4c(c3)OCO4)cc2)CC1	inactive: -2.52%
C=C(C)Cc1c(C)c(C#N)c2[nH]c3ccccc3n2c1=O	inactive: -24.8%
COc1ccc(OCC(=O)Nn2c(-c3ccc(OC)cc3)nc3ccccc3c2=O)cc1	inactive: 3.71%
Cn1cc(-c2ccc(C(=O)NCc3cccc(Cl)c3)c3occc23)cn1	inactive: -1.88%
COc1ccccc1/C=N/NC(=O)CSc1cc(C)nc2ccccc12	inactive: 17.3%
CC1(C)CC(=O)C(C=NCCN2CCN(CC(=O)Nc3ccccc3)CC2)=C(O)C1	inactive: 4.48%
O=C1NC(=O)C(c2ccc(F)cc2)N1 (configuration not stated)	inactive: -0.295%
CC(C)C(NS(=O)(=O)/C=C/c1ccccc1)C(=O)NCc1ccc(F)cc1 (configuration not stated)	inactive: -12.9%
O=C(Nc1ccc2oc(-c3cccnc3)nc2c1)c1ccc(-c2ccccc2)o1	inactive: 35%
CNS(=O)(=O)c1cccc(C(=O)OCC(=O)c2c(N)n(C)c(=O)n(C)c2=O)c1	inactive: 28.4%
Cn1c(=O)n(C)c2cc(NC(=O)c3ccccc3[N+](=O)[O-])c(Br)cc21	inactive: -6.52%
